# Experimental data taken from the supplement of paper PMC7826260.
# Some of the results follow. Viral Rep nickase domains cut single-stranded DNA in vitro (3 µM enzyme, 1 h, 37 °C); shown is the middle of each 90-letter strand. Values are log2 of uncut reads against the no-enzyme pool; more negative means more cut, near 0 not cut, and no call is made. Reads are scaled to the total; values above 0 arise when much of the pool is cut.
# System: T1, Rep nickase domain of tomato golden mosaic virus
# T1 sequence (residues 1-124 of Rep, tag left off): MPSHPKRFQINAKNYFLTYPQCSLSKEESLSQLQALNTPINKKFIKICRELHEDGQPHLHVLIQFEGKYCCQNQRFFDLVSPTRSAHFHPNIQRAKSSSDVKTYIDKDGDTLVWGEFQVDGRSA
# Assay: uncleaved DNA left, log2 of reads against the no-enzyme library (log2 ratio); higher = less cleavage (more negative = more Rep cleavage of the k-mer); sequences stand for … in CTCGTCCG…ACCGGAGA
# Description: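 A pool of 90-nt single-stranded DNAs with seven random bases just before the constant AC of the nick site (name = the seven bases) was cut by 3 µM recombinant His6-SUMO-tagged Rep nickase domain (300 nM DNA, 50 mM HEPES pH 8.0, 50 mM NaCl, 1 mM MnCl2, 1 h, 37 °C, three replicates). Uncut DNA was amplified and sequenced.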
row,Sequence,uncleaved DNA left (log2)
1,TACGAAA,-0.0105
2,ATTCGGT,0.0772
3,TGGTGAA,0.0403
4,CTTCTGT,-0.164
5,GGTCCGA,-0.0614
6,CGGGGCG,-0.109
7,CGCTTGG,-0.0816
8,GCGAGCC,0.068
9,GTCTATC,-0.0846
10,CCCGCCG,-0.218
11,CACCCTG,-0.0235
12,TCACGAT,-0.0367
13,TTTTCAG,-0.1
14,CTCGATC,-0.00379
15,TCAGCAT,-0.0872
16,GACGATG,-0.0276
17,TCTCACA,0.0261
18,TAATCGC,-2.86
19,GCGAGGG,0.00891
20,AACCTGT,-0.0403

row,Sequence,uncleaved DNA left (log2)
1,AAAAGCA,0.113
2,CGGCCAG,-0.126
3,CGCCGTC,-0.105
4,CATCCAT,-0.0536
5,ACTCGAT,-0.000514
6,CATCGAA,-0.078
7,ATAATTA,0.186
8,AGTGGCG,0.119
9,AGCCATC,-0.0728
10,AGTGAAT,0.0725
11,AACAGCC,-0.0966
12,TAAGTGC,-0.131
13,AGACAGT,0.0745
14,AGTGTTA,-0.0819
15,TTCTTCG,-0.236
16,CAACGGC,-0.0666
17,CTGGGAA,0.00793
18,GAGTATT,-0.973
19,GTCCTCC,0.0326
20,CGAAGCC,0.0569
